# Some of the results follow.
# B1: PNA (Arachis hypogaea), P02872 (protein)
# chain: MKPFCVFLTFFLLLAASSKKVDSAETVSFNFNSFSEGNPAINFQGDVTVLSNGNIQLTNLNKVNSVGRVLYAMPVRIWSSATGNVASFLTSFSFEMKDIKDYDPADGIIFFIAPEDTQIPAGSIGGGTLGVSDTKGAGHFVGVEFDTYSNSEYNDPPTDHVGIDVNSVDSVKTVPWNSVSGAVVKVTVIYDSSTKTLSVAVTNDNGDITTIAQVVDLKAKLPERVKFGFSASGSLGGRQIHLIRSWSFTSTLITTTRRSIDNNEKKIMNMASA
# Experiments:
# Assay in all cases: glycan array binding signal (z-score within array); higher = stronger binding
# Details in all cases: glycan notation: IUPAC condensed, linker removed
# [1] = molecular target: Neu5Ac(a2-3)Gal(b1-4)GlcNAc(b1-2)[Neu5Ac(a2-3)Gal(b1-4)GlcNAc(b1-6)]Man(a1-6)[Neu5Ac(a2-3)Gal(b1-4)GlcNAc(b1-2)Man(a1-3)][GlcNAc(b1-4)]Man(b1-4)GlcNAc(b1-4)GlcNAc
# In short: (§1)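 Negative Z-scores can be read as non-binding. The Z-score is calculated within each array and then averaged across arrays of one protein sequence at different concentrations or buffers and across linkers. Arrays, 3228 in all, were curated from the Consortium for Functional Glycomics database and kept only where the protein sequence was available.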
# [2] = molecular target: Neu5Ac(a2-3)Gal(b1-4)GlcNAc(b1-3)Gal
# In short: as §1
# [3] = molecular target: Neu5Ac(a2-3)Gal(b1-4)GlcNAc(b1-3)Gal(b1-3)GlcNAc
# In short: as §1
# [4] = molecular target: Neu5Ac(a2-3)Gal(b1-4)GlcNAc(b1-3)Gal(b1-4)Glc
# In short: as §1
# [5] = molecular target: Neu5Ac(a2-3)Gal(b1-4)GlcNAc(b1-3)Gal(b1-4)GlcNAc
# In short: as §1
# [6] = molecular target: Neu5Ac(a2-3)Gal(b1-4)GlcNAc(b1-3)Gal(b1-4)GlcNAc(b1-2)Man(a1-3)[Neu5Ac(a2-3)Gal(b1-4)GlcNAc(b1-3)Gal(b1-4)GlcNAc(b1-2)Man(a1-6)]Man(b1-4)GlcNAc(b1-4)GlcNAc
# In short: as §1
# [7] = molecular target: Neu5Ac(a2-3)Gal(b1-4)GlcNAc(b1-3)Gal(b1-4)GlcNAc(b1-3)Gal(b1-4)GlcNAc
# In short: as §1
# [8] = molecular target: Neu5Ac(a2-3)Gal(b1-4)GlcNAc(b1-3)Gal(b1-4)GlcNAc(b1-3)Gal(b1-4)GlcNAc(b1-2)Man(a1-3)[Neu5Ac(a2-3)Gal(b1-4)GlcNAc(b1-3)Gal(b1-4)GlcNAc(b1-3)Gal(b1-4)GlcNAc(b1-2)Man(a1-6)]GalNAc
# In short: as §1
# [9] = molecular target: Neu5Ac(a2-3)Gal(b1-4)GlcNAc(b1-3)Gal(b1-4)GlcNAc(b1-3)GalNAc
# In short: as §1
# [10] = molecular target: Neu5Ac(a2-3)Gal(b1-4)GlcNAc(b1-3)Gal(b1-4)GlcNAc(b1-3)[Neu5Ac(a2-3)Gal(b1-4)GlcNAc(b1-3)Gal(b1-4)GlcNAc(b1-6)]GalNAc
# In short: as §1
# [11] = molecular target: Neu5Ac(a2-3)Gal(b1-4)GlcNAc(b1-3)Gal(b1-4)GlcNAc(b1-6)[Gal(b1-3)]GalNAc
# In short: as §1
# [12] = molecular target: Neu5Ac(a2-3)Gal(b1-4)GlcNAc(b1-3)Gal(b1-4)[Fuc(a1-3)]GlcNAc
# In short: as §1
# [13] = molecular target: Neu5Ac(a2-3)Gal(b1-4)GlcNAc(b1-3)GalNAc
# In short: as §1
# [14] = molecular target: Neu5Ac(a2-3)Gal(b1-4)GlcNAc(b1-3)[Neu5Ac(a2-3)Gal(b1-4)GlcNAc(b1-6)]GalNAc
# In short: as §1
# [15] = molecular target: Neu5Ac(a2-3)Gal(b1-4)GlcNAc(b1-6)GalNAc
# In short: as §1
# [16] = molecular target: Neu5Ac(a2-3)Gal(b1-4)GlcNAc(b1-6)GalNAc(a1-3)Gal(b1-4)Glc
# In short: as §1
# [17] = molecular target: Neu5Ac(a2-3)Gal(b1-4)GlcNAc(b1-6)[Gal(b1-3)]GalNAc
# In short: as §1
# [18] = molecular target: Neu5Ac(a2-3)Gal(b1-4)GlcNAc(b1-6)[Neu5Ac(a2-3)Gal(b1-3)]GalNAc
# In short: as §1
# [19] = molecular target: Neu5Ac(a2-3)Gal(b1-4)GlcNAc6S
# In short: as §1
# [20] = molecular target: Neu5Ac(a2-3)Gal(b1-4)GlcNAc6S(b1-3)Gal6S(b1-3)GlcNAc6S
# In short: as §1
# [21] = molecular target: Neu5Ac(a2-3)Gal(b1-4)[3dFuc(a1-3)]GlcNAc(b1-3)Gal
# In short: as §1
# [22] = molecular target: Neu5Ac(a2-3)Gal(b1-4)[4dFuc(a1-3)]GlcNAc(b1-3)Gal
# In short: as §1
# [23] = molecular target: Neu5Ac(a2-3)Gal(b1-4)[6dTal(a1-3)]GlcNAc(b1-3)Gal
# In short: as §1
# [24] = molecular target: Neu5Ac(a2-3)Gal(b1-4)[Fuc(a1-3)]Glc
# In short: as §1
# [25] = molecular target: Neu5Ac(a2-3)Gal(b1-4)[Fuc(a1-3)]GlcNAc
# In short: as §1
# [26] = molecular target: Neu5Ac(a2-3)Gal(b1-4)[Fuc(a1-3)]GlcNAc(b1-2)Man
# In short: as §1
# [27] = molecular target: Neu5Ac(a2-3)Gal(b1-4)[Fuc(a1-3)]GlcNAc(b1-3)Gal
# In short: as §1
# [28] = molecular target: Neu5Ac(a2-3)Gal(b1-4)[Fuc(a1-3)]GlcNAc(b1-3)Gal(b1-4)Glc
# In short: as §1
# [29] = molecular target: Neu5Ac(a2-3)Gal(b1-4)[Fuc(a1-3)]GlcNAc(b1-3)Gal(b1-4)GlcNAc
# In short: as §1
# [30] = molecular target: Neu5Ac(a2-3)Gal(b1-4)[Fuc(a1-3)]GlcNAc(b1-3)Gal(b1-4)[Fuc(a1-3)]GlcNAc(b1-3)Gal(b1-4)Glc
# In short: as §1
# [31] = molecular target: Neu5Ac(a2-3)Gal(b1-4)[Fuc(a1-3)]GlcNAc(b1-3)Gal(b1-4)[Fuc(a1-3)]GlcNAc(b1-3)Gal(b1-4)[Fuc(a1-3)]GlcNAc
# In short: as §1
# [32] = molecular target: Neu5Ac(a2-3)Gal(b1-4)[Fuc(a1-3)]GlcNAc(b1-3)GalNAc
# In short: as §1
# [33] = molecular target: Neu5Ac(a2-3)Gal(b1-4)[Fuc(a1-3)]GlcNAc(b1-4)GalNAc(b1-3)Gal(b1-4)Glc
# In short: as §1
# [34] = molecular target: Neu5Ac(a2-3)Gal(b1-4)[Fuc(a1-3)]GlcNAc(b1-6)Gal(b1-4)Glc
# In short: as §1
# [35] = molecular target: Neu5Ac(a2-3)Gal(b1-4)[Fuc(a1-3)]GlcNAc(b1-6)[Gal(b1-3)]GalNAc
# In short: as §1
# [36] = molecular target: Neu5Ac(a2-3)Gal(b1-4)[Fuc(a1-3)]GlcNAc(b1-6)[Neu5Ac(a2-3)Gal(b1-3)]GalNAc
# In short: as §1
# [37] = molecular target: Neu5Ac(a2-3)Gal(b1-4)[Fuc(a1-3)]GlcNAc6S
# In short: as §1
# [38] = molecular target: Neu5Ac(a2-3)Gal(b1-4)[Fuc(a1-3)]GlcNAc6S(b1-3)Gal(b1-4)Glc
# In short: as §1
# [39] = molecular target: Neu5Ac(a2-3)Gal(b1-4)[Fuc2Me(a1-3)]GlcNAc(b1-3)Gal
# In short: as §1
# [40] = molecular target: Neu5Ac(a2-3)Gal(b1-4)[Qui(a1-3)]GlcNAc(b1-3)Gal
# In short: as §1
# [41] = molecular target: Neu5Ac(a2-3)Gal(b1-4)[Rha(a1-3)]GlcNAc(b1-3)Gal
# In short: as §1
# Neu5Ac(a2-3)Gal3S = molecular target: Neu5Ac(a2-3)Gal3S
# In short: as §1
# [42] = molecular target: Neu5Ac(a2-3)Gal6S(b1-4)GlcNAc
# In short: as §1
# [43] = molecular target: Neu5Ac(a2-3)Gal6S(b1-4)[Fuc(a1-3)]GlcNAc
# In short: as §1
# [44] = molecular target: Neu5Ac(a2-3)Gal6S(b1-4)[Fuc(a1-3)]GlcNAc(b1-3)Gal(b1-4)Glc
# In short: as §1
binder,measurement,setting,value
B1,glycan array binding signal (z-score),[1],-0.34
same,glycan array binding signal (z-score),[2],-0.289
same,glycan array binding signal (z-score),[3],-0.104
same,glycan array binding signal (z-score),[4],-0.195
same,glycan array binding signal (z-score),[5],-0.171
same,glycan array binding signal (z-score),[6],0.479
same,glycan array binding signal (z-score),[7],-0.166
same,glycan array binding signal (z-score),[8],0.982
same,glycan array binding signal (z-score),[9],-0.161
same,glycan array binding signal (z-score),[10],-0.088
same,glycan array binding signal (z-score),[11],1.43
same,glycan array binding signal (z-score),[12],-0.217
same,glycan array binding signal (z-score),[13],-0.182
same,glycan array binding signal (z-score),[14],-0.1
same,glycan array binding signal (z-score),[15],-0.257
same,glycan array binding signal (z-score),[16],-0.195
same,glycan array binding signal (z-score),[17],0.962
same,glycan array binding signal (z-score),[18],-0.177
same,glycan array binding signal (z-score),[19],-0.264
same,glycan array binding signal (z-score),[20],-0.195
same,glycan array binding signal (z-score),[21],-0.195
same,glycan array binding signal (z-score),[22],-0.195
same,glycan array binding signal (z-score),[23],-0.195
same,glycan array binding signal (z-score),[24],-0.195
same,glycan array binding signal (z-score),[25],-0.192
same,glycan array binding signal (z-score),[26],-0.295
same,glycan array binding signal (z-score),[27],-0.198
same,glycan array binding signal (z-score),[28],-0.195
same,glycan array binding signal (z-score),[29],-0.122
same,glycan array binding signal (z-score),[30],-0.195
same,glycan array binding signal (z-score),[31],-0.112
same,glycan array binding signal (z-score),[32],-0.138
same,glycan array binding signal (z-score),[33],-0.195
same,glycan array binding signal (z-score),[34],-0.195
same,glycan array binding signal (z-score),[35],-0.068
same,glycan array binding signal (z-score),[36],0.075
same,glycan array binding signal (z-score),[37],-0.225
same,glycan array binding signal (z-score),[38],-0.195
same,glycan array binding signal (z-score),[39],-0.195
same,glycan array binding signal (z-score),[40],-0.195
same,glycan array binding signal (z-score),[41],-0.195
same,glycan array binding signal (z-score),Neu5Ac(a2-3)Gal3S,-0.195
same,glycan array binding signal (z-score),[42],-0.196
same,glycan array binding signal (z-score),[43],-0.18
same,glycan array binding signal (z-score),[44],-0.195
